# In PubChem BioAssay AID1030 (National Center for Advancing Translational Sciences (NCATS), 2008):
# The whole screen tested about 220,000 compounds, of which about 16,000 (7.3%) were called active. This list was built around the results that the source calls inconclusive (neither active nor inactive); the mix of calls is not that of the screen. Calls come from the whole dose curve; as a rule, active = well fitted inhibition curve with a large enough effect (not every such curve was filed as active); inconclusive = small, poorly fitted or top-dose-only effect, or another doubt; inactive = no such curve, though single readings can be large or run the other way. Potencies of inconclusive entries are left out as doubtful fits.
# Molecular target: Aldehyde dehydrogenase 1A1 (Homo sapiens) (UniProt P00352)
# Assay: qHTS Assay for Inhibitors of Aldehyde Dehydrogenase 1 (ALDH1A1);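 for activity, negative = inhibition: plate controls were no enzyme wells and a reference inhibitor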
# Conditions: Purified ALDH1A1, NADH fluorescence, propionaldehyde substrate; series mostly up to 75.3 µM
# Potency is the fitted concentration of half-maximal effect; tags give direction and shape of the fitted curve.
# UniProt P00352, sequence (P00352 whole entry, looked up): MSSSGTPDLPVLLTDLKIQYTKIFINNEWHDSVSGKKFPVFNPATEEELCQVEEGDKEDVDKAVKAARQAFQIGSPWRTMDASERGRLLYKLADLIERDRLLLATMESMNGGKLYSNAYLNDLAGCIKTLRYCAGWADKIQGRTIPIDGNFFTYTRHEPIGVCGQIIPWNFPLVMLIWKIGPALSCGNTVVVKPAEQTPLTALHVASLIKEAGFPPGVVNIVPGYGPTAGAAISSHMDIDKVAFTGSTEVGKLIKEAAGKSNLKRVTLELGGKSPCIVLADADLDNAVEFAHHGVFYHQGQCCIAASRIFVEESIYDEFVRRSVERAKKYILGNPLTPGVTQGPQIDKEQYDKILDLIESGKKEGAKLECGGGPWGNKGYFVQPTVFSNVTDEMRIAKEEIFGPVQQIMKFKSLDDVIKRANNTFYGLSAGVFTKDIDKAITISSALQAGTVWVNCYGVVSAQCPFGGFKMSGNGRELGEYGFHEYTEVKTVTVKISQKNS
SMILES,"activity, negative = inhibition",Potency
CC(C)CN1CCc2nc(-c3ccccc3)c3c(c2CC1)COC(C)C3 (stereo unspecified),inactive: 9.36% [at 13.5 µM],
Cc1cc(=O)[nH]c(SCC(=O)N2CCc3ccccc3C2)n1,,"inconclusive [inhibitor, single point]"
CSc1cccc(NC(=O)COc2ccccc2)c1,,"inconclusive [inhibitor, single point]"
Cc1ccc(N(CC(=O)N2CC(=O)Nc3ccccc32)S(=O)(=O)c2ccc3c(c2)OCCO3)cc1,,"inconclusive [inhibitor, partial curve]"
CC(=NC1CCCCC1)c1ccccc1O,,"inconclusive [inhibitor, single point]"
C=CCn1c(SCc2nc3ccccc3c(=O)[nH]2)nc2scc(C3CC3)c2c1=O,,"inconclusive [inhibitor, partial curve]"
CC1(C)Oc2ccc(C(=O)NN)cc2NC1=O,,active: 1.58 µM
COc1ccc(NC(=O)c2ccc(-c3ccc(C)c4ccccc34)o2)cc1,,"inconclusive [inhibitor, partial curve]"
Cc1ccccc1-n1c(SCC(=O)Nc2ccccc2)nc2nc3c(cc2c1=O)CCCC3,,active: 7.94 µM
CCC(C)(C)NC(=O)CN(C(=O)C(=O)Nc1ccc2c(c1)OCCO2)C(C)(C)CC,,inactive
CCc1nnc(NC(=O)CSc2nnc(-c3cc4ccccc4cc3O)n2CC)s1,,inactive
Cc1ccc(/C=N/NC(=O)c2ccc3nc[nH]c3c2)o1,,"inconclusive [inhibitor, partial curve, poor fit]"
O=C(COC(=O)c1cc2ccccc2cc1O)Nc1cccnc1Cl,,inactive
Cc1cc(C)n(CCc2nc(-c3ccco3)cs2)n1,,active: 7.08 µM
Clc1ccc(Cn2cc(/C=N/n3cnnc3)c3ccccc32)cc1,,"inconclusive [inhibitor, single point]"
O=C(O)CCc1nn2c3ccccc3n(CC(=O)c3cccs3)c2nc1=O,,"inconclusive [inhibitor, partial curve]"
CC(C)=C1C2CCC1C1C(=O)N(c3nc(-c4ccc(F)cc4)c(C)s3)C(=O)C21 (stereo unspecified),,"inconclusive [inhibitor, single point]"
COc1ccc(OCCOC(=O)c2cccs2)cc1,,"inconclusive [inhibitor, partial curve]"
COc1ccc(CSc2nnnn2C)cc1[N+](=O)[O-],,"inconclusive [inhibitor, single point]"
O=C(NC(c1ccccc1)c1ccccc1)c1ccc(=O)[nH]n1,,active: 4.47 µM
CC1=CC2=NC(=O)CC(C)(C(=O)N(CC(=O)NC(C)(C)C)Cc3ccccc3)N2C=C1 (stereo unspecified),,"inconclusive [inhibitor, full curve]"
Cc1noc(C)c1S(=O)(=O)N(Cc1ccccc1)C(C)C,,"inconclusive [inhibitor, single point]"
O=C(N/N=C/c1ccco1)c1cc(-c2ccc(Cl)s2)[nH]n1,,"inconclusive [inhibitor, partial curve]"
COc1ccc(C(c2nnnn2Cc2ccccc2)N2CCN(C(=O)c3ccco3)CC2)cc1 (stereo unspecified),,active: 28.2 µM

SMILES,"activity, negative = inhibition",Potency
O=C(O)c1cc2n(n1)C(C(F)(F)F)CC(c1ccco1)N2 (stereo unspecified),,"inconclusive [inhibitor, single point]"
COC(=O)N[C@@H](/C=C/c1ccccc1)/C(C(=O)OC)=C(\C)NCc1ccccc1,,inactive
CCn1ccnc1CN1CCCC(C(=O)c2ccc3cc(OC)ccc3c2)C1 (stereo unspecified),,"inconclusive [inhibitor, partial curve]"
O=C1SC(SC(=Nc2ccccc2)Nc2ccccc2)C(=O)N1c1ccccc1 (stereo unspecified),,active: 25.1 µM
C=CCn1c(SCC(=O)NCc2ccco2)nnc1-c1ccc2ccccc2n1,,"inconclusive [inhibitor, single point]"
COC(=O)c1cc2ccc(OC)c(OC)c2c(=O)s1,,inactive
COC(=O)c1ccc(COC(=O)CNC(=O)c2ccco2)cc1,,"inconclusive [inhibitor, single point]"
Cc1ccc(C)c(NC(=O)CSc2c(C)n[nH]c2C)c1,,"inconclusive [inhibitor, single point]"
COc1ccc2[nH]c(CN3CCN(CC(C)C)C(CCO)C3)c(C)c2c1 (stereo unspecified),,"inconclusive [inhibitor, single point]"
c1csc(CNc2ccnc(-c3ccoc3)n2)c1,,active: 11.2 µM
Cc1[nH]c2ccccc2c1C(=O)CSC(=S)N(C)C,,"inconclusive [inhibitor, partial curve]"
COc1ccc(S(=O)(=O)N(C)CC(=O)Nc2ccc3c(c2)OCO3)cc1,,"inconclusive [inhibitor, single point]"
CCc1cccc2c1NC(=O)[C@]21[C@@H]2C(=O)N(Cc3ccccc3)C(=O)[C@@H]2[C@@H]2CCCN21,,"inconclusive [inhibitor, single point]"
O=C(NC1CC1)c1ccc2c3c(cccc13)CC2,,"inconclusive [inhibitor, single point]"
CSc1nc(N)c2ncn([C@H]3O[C@H](COP(=O)(O)OP(=O)(O)O)[C@@H](O)[C@@H]3O)c2n1,,inactive
COC(=O)COc1cccc(-n2cnnn2)c1,,inactive
COc1cc(C2C3=C(CC(C)(C)CC3=O)OC(N)=C2[N+](=O)[O-])ccc1O (stereo unspecified),,"inconclusive [inhibitor, single point]"
CC(C)(C)c1ccc(-c2cc(N)n[nH]2)cc1,,"inconclusive [inhibitor, single point]"
COc1cccc(/C=C/C(=O)OCC(=O)Nc2cccc(S(=O)(=O)N3CCOCC3)c2)c1OC,,"inconclusive [inhibitor, single point]"
OCc1cn(-c2ccccc2)nc1-c1ccco1,,"inconclusive [inhibitor, single point]"
C/C(Cn1nnc2ccccc21)=N\NC(=O)c1cccc(Br)c1,,"inconclusive [inhibitor, single point]"
O=C(CCn1nc(-c2ccccc2)c2ccccc2c1=O)NCC1CCCO1 (stereo unspecified),,"inconclusive [inhibitor, single point]"
COc1cc(/C(C#N)=C/c2ccccc2)c([N+](=O)[O-])cc1OC,,inactive
O=[N+]([O-])c1ccc(N/N=C2\CC3CC=CC23)cc1 (stereo unspecified),,"inconclusive [inhibitor, partial curve]"

SMILES,"activity, negative = inhibition",Potency
Cc1[nH]c2ccc(-c3nnc(SCC(=O)NCc4ccco4)n3Cc3ccccc3)cc2c1C,,active: 31.6 µM
Cc1cc(=O)oc2c(CN(CC(C)C)CC(C)C)c(O)ccc12,,"inconclusive [inhibitor, partial curve]"
O=C(N/N=C/c1cccc(Oc2ccccc2)c1)c1cc[n+]([O-])cc1,,"inconclusive [inhibitor, single point]"
Cc1cc2cc(CNC(=S)Nc3ccc(OC(F)(F)F)cc3)ccc2[nH]1,,inactive
Cn1cc(CC(=O)Nc2cccc(C#N)c2)c2ccccc21,,"inconclusive [inhibitor, single point]"
Cc1ccc(NS(=O)(=O)c2ccc3c(c2)CCC(=O)N3)cc1C,,"inconclusive [inhibitor, partial curve]"
CC1CC(C)CN(C(=O)Cn2cc(C=O)c3ccccc32)C1 (stereo unspecified),,"inconclusive [inhibitor, single point]"
COc1cc(NC(=O)c2ccc(C(C)(C)C)cc2)c(OC)cc1NC(=O)CN1CCCCC1,,"inconclusive [inhibitor, single point]"
S=c1[nH]nc(COc2ccccc2)n1/N=C/c1ccccn1,,"inconclusive [inhibitor, single point]"
CC(=O)N(CCN(C(C)=O)c1ccccc1)c1ccccc1,,inactive
O=C(NCc1cccs1)c1ccc2c(c1)OCCO2,,inactive
Cc1ccccc1-c1nc(-c2ccc(NC(=O)c3ccc(Br)o3)cc2)no1,,"inconclusive [inhibitor, single point]"
O=C1C(c2ccncc2)N(CCC2=CCCCC2)C(=O)CN1C1CCCCC1 (stereo unspecified),,"inconclusive [inhibitor, partial curve]"
CC(=O)c1cccc([N+](=O)[O-])c1,,active: 28.2 µM
O=[N+]([O-])c1ccc(N=Cc2sc3ccccc3c2O)cc1,,"inconclusive [inhibitor, single point]"
CN1CCN(C(=O)c2ccc(-n3c(=O)c(=O)[nH]c4ccccc43)cc2)CC1,,inactive
Cn1c(=O)c2ncn(CC(=O)N=Nc3c(O)[nH]c4ccccc34)c2n(C)c1=O,,inactive
CCNc1ncc2nc(-c3ccc(OC)cc3)c(=O)n(C)c2n1,,"inconclusive [inhibitor, partial curve]"
N#Cc1nc(COc2ccccc2F)oc1N1CCCCCC1,,"inconclusive [inhibitor, single point]"
COc1cc(N2C(=O)C=CC2=O)c(OC)cc1Cl,,active: 8.91 µM
CC1=C(C(=O)OCC2CCCO2)C(c2cccc(O)c2)NC(=O)N1 (stereo unspecified),,inactive
O=C(O)CCCCCn1c(SCc2cc(=O)n3ccccc3n2)nc2ccsc2c1=O,,"inconclusive [inhibitor, partial curve]"
CC(C)CNS(=O)(=O)c1ccc(CC(C)C)cc1,,"inconclusive [inhibitor, single point]"
